Laboratory results reported in PubChem BioAssay AID1645882 (National Center for Advancing Translational Sciences (NCATS), 2021).
Hit rate of the full screen: of about 16,000 compounds, about 120 (0.75%) were called active. About 4% were inconclusive and are not listed. The call rests on the fitted dose curve; in most records, active means well fitted inhibition curve with a large enough effect; inconclusive means small, poorly fitted or top-dose-only effect; inactive means no such curve, though single readings can be large or run the other way. The list shows a part of the results. *1 amine or outer side, *2 acyl side, *3 side chain or, on linkers, in order; H or OH if unused. Where a SMILES comes first, the peptide text is derived from it. Bridges are numbered along the chain shown (N, C = ends). [ ]: non-standard residue; d: D form. The star is where a group is joined. ξ: configuration not given here. ΔAla(E,3-NHCONH2) = NC(=O)N/C=C(/N)C(=O)O; X11 = NC1=NCCC(C(N[*:1])C(=O)[*:2])N1; ξβ3hOrn = NCCCC(N)CC(=O)*; Dap = NC[CH](N)C(=O)O

target: Rap guanine nucleotide exchange factor 3 (Homo sapiens) (UniProt O95398); experiment: Validation qHTS for antagonist of cAMP-regulated guanine nucleotide exchange factor 3 (EPAC1); settings: EPAC1 Rap1B-BODIPY-GDP exchange, fluorescence; series mostly up to 150 µM; activity change, negative = inhibition: at the top concentration; further: nearly all actives have a fitted effect of over 75% in size
Chain of UniProt O95398 (O95398 whole entry, looked up): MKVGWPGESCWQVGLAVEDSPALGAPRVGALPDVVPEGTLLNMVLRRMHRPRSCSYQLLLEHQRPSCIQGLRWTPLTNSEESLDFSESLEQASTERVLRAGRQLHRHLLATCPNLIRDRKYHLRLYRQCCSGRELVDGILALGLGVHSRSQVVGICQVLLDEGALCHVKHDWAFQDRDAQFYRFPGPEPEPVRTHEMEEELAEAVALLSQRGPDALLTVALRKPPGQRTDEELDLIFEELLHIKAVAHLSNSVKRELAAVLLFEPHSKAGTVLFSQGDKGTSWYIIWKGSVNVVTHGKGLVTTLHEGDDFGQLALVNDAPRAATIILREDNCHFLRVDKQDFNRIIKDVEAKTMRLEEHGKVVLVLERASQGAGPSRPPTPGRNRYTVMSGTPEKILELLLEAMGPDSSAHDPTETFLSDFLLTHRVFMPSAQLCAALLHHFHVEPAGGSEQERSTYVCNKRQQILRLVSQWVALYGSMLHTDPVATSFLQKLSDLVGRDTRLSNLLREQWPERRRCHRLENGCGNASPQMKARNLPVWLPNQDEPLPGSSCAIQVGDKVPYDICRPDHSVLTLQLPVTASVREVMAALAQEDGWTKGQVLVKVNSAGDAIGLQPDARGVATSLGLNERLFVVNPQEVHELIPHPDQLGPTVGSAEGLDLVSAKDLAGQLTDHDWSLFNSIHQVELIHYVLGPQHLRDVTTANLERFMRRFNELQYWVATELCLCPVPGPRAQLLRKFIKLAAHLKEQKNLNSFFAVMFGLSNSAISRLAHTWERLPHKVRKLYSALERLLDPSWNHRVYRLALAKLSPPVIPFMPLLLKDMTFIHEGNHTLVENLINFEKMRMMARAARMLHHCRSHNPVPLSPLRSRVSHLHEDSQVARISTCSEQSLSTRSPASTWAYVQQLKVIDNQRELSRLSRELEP
In short: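 EPAC1 (100 nM) mixed with 250 nM RAP1B-BODIPY-GDP and 50 uM GDP; compounds in concentration series, 5 min at room temperature. Fluorescence (ex 480/em 540 nm) read every 5 min for 30 min; normalized to ATA control and DMSO.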

Activity change, negative = inhibition, inactive:
CC(=O)N1CCC[C@@]2(CCN(c3ccccc3)C2)C1 10.1%
COC(=O)N1CCC[C@@]2(CCN(C(=O)Nc3cccc(F)c3)C2)C1 16.1%
O=C(Nc1cccc(F)c1)N1CC[C@@]2(CCCN(S(=O)(=O)c3ccccc3)C2)C1 5.39%
CC(=O)Nc1ccccc1-c1nc(CNC(=O)c2cc(C)ccc2C)c(C)o1 10.2%
CC(=O)OC1c2c(ccc3ccc(=O)oc23)OC(C)(C)C1OC(=O)CC(C)C (centres undefined) -21.8%
CC(C)NCC(O)COc1cccc2ccccc12 (centres undefined)
CCC1(C2CCN(C(=O)c3ccccc3C(C)=O)CC2)NC(=O)N(CCc2scnc2C)C1=O (centres undefined) 9.64%
COc1ccc(C(=O)N2CCC3(CCN(Cc4ccncc4)CC3)CC2)cc1 13.7%
CC(=O)Nc1c(I)c(C(=O)O)c(I)c(N(C)C(C)=O)c1I 11.8%
CC(=O)N[C@H](CS)C(=O)O -0.582%
CC(C)(C)NC[C@H](O)c1ccc(O)c(CO)c1 1.88%
Cc1cc2c(cc1C)N[C@]1(C[C@H]3CCCC(=O)N4CC[C@@H](C1)[C@@H]34)C(=Nc1ccccc1C)N2 8.32%
CN(CC(=O)O)c1ccc(C=O)cc1 -3.03%
C[C@@](N)(C(=O)O)c1ccc(S(=O)(=O)O)cc1 6.23%
CCOc1ccccc1OCCN[C@H](C)Cc1ccc(OC)c(S(N)(=O)=O)c1 14.1%
Cc1cc2c(c(-c3cnccn3)c1)OC(CNC(=O)c1c(F)cccc1Cl)C2 (centres undefined) 15.3%
CCCCCCCCCCCCC[N+](C)(C)Cc1ccccc1 0.354%
CCCCCCCCCCC/C=C\C(C)(C)/C=C\CCCC(=O)O 19.2% [at 15.3 µM]
Nc1nc2c(ncn2C2OC(CO)CC2O)c(=O)[nH]1 (centres undefined) 18.3%
CC(C)[N+]1(C)C2CCC1CC(OC(=O)C(CO)c1ccccc1)C2 (centres undefined)
C(=C\c1ccnc2ccccc12)/c1ccc(N2CCNCC2)cc1 13.8%
O=S(=O)(O)CCS
O=S1(=O)CCOCCCN1Cc1ccccc1 0.969%
NCCCC(N)CC(=O)NCC1NC(=O)C(CO)NC(=O)C(N)CNC(=O)C(C2CCN=C(N)N2)NC(=O)/C(=C\NC(N)=O)NC1=O (stereo not drawn) (H-[Dap]S[Dap](ξβ3hOrn)[ΔAla(E,3-NHCONH2)][X11]; lactam 1-C; configuration not given here) 10.9%
CCn1cc(C(=O)O)c(=O)c2cnc(N3CCCC3)nc21
O=C(c1ccncc1)N1CCC2(CC1)CCN(c1ccccc1)CC2 18.3%
CCOC(=O)OC(C)OC1=C(C(=O)Nc2ccccn2)N(C)S(=O)(=O)c2ccccc21 (centres undefined) 1.46%
CC(=O)[C@H]1CC[C@H]2[C@@H]3C[C@H](C)C4=CC(=O)CC[C@]4(C)[C@H]3[C@@H](O)C[C@]12C 11.1% [at 75.8 µM]
[N-]=[N+]=N[C@@H](CCN1CC[C@H](NC(=O)OCc2ccccc2)CCC1=O)c1ccccc1 -8.2%
COCCn1c(=O)c(-c2cccs2)nc2cnc(N3CCN(C)CC3)nc21 2.05%
N#Cc1ccc(CN2CCC3(CCNCC3)CC2)cc1 7.55%
C[C@]12CC[C@@H]3c4ccc(O)cc4CC[C@H]3[C@@H]1CC[C@@H]2OP(=O)(O)O -2.16%
COC1C(O)CC(=O)OC(C)C/C=C/C=C/[C@@H](OC2CCC(N(C)C)C(C)O2)C(C)C[C@@H](CC=O)[C@@H]1O[C@H]1OC(C)[C@H](O[C@@H]2C[C@@](C)(O)C(O)C(C)O2)C(N(C)C)C1O (some centres undefined) -7.87%
COc1ccc(-c2nc3cnc(N4CCOCC4)nc3n(C[C@H]3CCCO3)c2=O)cc1 0.982%
COC(=O)c1c(C)cc(O)cc1O 7.49%
O=Cc1ccc2[nH]ccc2c1 26.2%
COc1c(CO)cc(CO)cc(CO)c1=O 17.1%
N#CCCn1c(=O)c(-c2ccccc2)nc2cnc(N3CCOCC3)nc21 -10.1%
Cc1cc(O)cc2c1O[C@](C)(CCC[C@H](C)CCC[C@H](C)CCCC(C)C)CC2
CCCCNC(=O)NS(=O)(=O)c1ccc(C)cc1
Nc1c2ccccc2nc2ccccc12 (tested in a mixture with another compound) -20.2%
COc1cccc(CN(C)C(=O)c2cnn(-c3nccc(-c4ccc5c(c4)OCO5)n3)c2C)c1 24.9%
COc1ccc2[nH]cc(CCNc3ncncc3-c3ccc(N(C)C)cc3)c2c1 -16.3%
COc1ccc(-c2oc3ccccc3c(=O)c2O)cc1OC -11.7%
Cc1c(C(=O)NN2CCOCC2)nn(-c2ccc(Cl)cc2Cl)c1-c1ccc(I)cc1 8.58%
CCN1CC(CCN2CCOCC2)C(c2ccccc2)(c2ccccc2)C1=O (centres undefined) 2.93%
N[C@@H](C(=O)N[C@@H]1C(=O)N2C(C(=O)O)=C(CSc3cn[nH]n3)CS[C@H]12)c1ccc(O)cc1 38.8%
CCNc1ncc2nc(-c3cccc(C#N)c3)c(=O)n(CCC#N)c2n1 17.7%
N[C@H](Cc1ccc(Cl)cc1)C(=O)O 9.73%
O=C(NCC1Cc2cc(-c3cnc4ccccc4c3)cc(F)c2O1)c1cnsn1 (centres undefined) 4%
COc1ccccc1C1CN(Cc2cn(C)nc2C)Cc2ccccc2O1 (centres undefined) 0.614%
COc1ccc(-c2cc(=O)c3ccc(O)cc3o2)cc1 24.3%
Cc1cc(C)c2ccccc2n1 17.4%
COCCn1c(=O)c(CCc2ccccc2)nc2cncnc21 -11.2%
Cc1cnc(CNc2nc(-c3ccccc3C)nc3ccccc23)cn1 -3.8%
OC1CCN(Cc2ccc3c(c2)CN(C/C=C/c2ccco2)CCO3)CC1 18.6%
Cc1noc(C)c1C(=O)N1CCC2(CC1)CCN(c1cccc(-c3ccccc3)c1)CC2 -22.8%
CC1CCC2(C(=O)O)CCC3(C)C(=CCC4C3(C)CCC3[C@@]4(C)CC(O)C(O)[C@@]3(C)CO)C2C1C (some centres undefined) 4.26%
COc1ccc2nc(NC(=O)Nc3ccccc3)sc2c1 9.71%
CS(=O)(=O)Nc1cccc(-c2ccc3ncnc(NCc4cccnc4)c3c2)c1 1.9%
Cc1ccccc1-c1cc(NCc2ccccc2)ncn1 9.62%
CC(=O)NCCNc1nc(-c2ccccc2C(F)(F)F)nc2ccccc12 11.1%
Nc1ncnc2c1ncn2[C@@H]1O[C@H](COP(=O)(O)OP(=O)(O)OP(=O)(O)O)[C@@H](O)[C@H]1O -1.09%
CCC(=O)O[C@]1(C(=O)CCl)[C@@H](C)C[C@H]2[C@@H]3C[C@H](F)C4=CC(=O)C=C[C@]4(C)[C@@]3(F)[C@@H](O)C[C@@]21C -8.52%
